Source: PubChem BioAssay AID504339 (National Center for Advancing Translational Sciences (NCATS), 2011)
Where “and” joins values, the source holds several entries; their conditions need not be identical. Equal entries are not always repeated. Among all 390,000 compounds or so, about 17,000 (4.4%) were called active. Inconclusive results, whose numbers are uncertain, are shown with a selection of clear calls. The call rests on the fitted dose curve; in most records, active means well fitted inhibition curve with a large enough effect; inconclusive means small, poorly fitted or top-dose-only effect; inactive means no such curve, though single readings can be large or run the other way. A potency beside an inconclusive call is a rough fit, not a confirmed value. A structure can be active in one record and inactive in another.

These compounds were tested against Lysine-specific demethylase 4A (Homo sapiens) (UniProt O75164) (assay: qHTS Assay for Inhibitors of JMJD2A-Tudor Domain). Conditions: AlphaScreen JMJD2A-Tudor / H3K4me3 peptide binding; activity change, negative = inhibition: at 114 µM (top of the series).
UniProt O75164, sequence (O75164 whole entry, looked up, the tested form may be a part): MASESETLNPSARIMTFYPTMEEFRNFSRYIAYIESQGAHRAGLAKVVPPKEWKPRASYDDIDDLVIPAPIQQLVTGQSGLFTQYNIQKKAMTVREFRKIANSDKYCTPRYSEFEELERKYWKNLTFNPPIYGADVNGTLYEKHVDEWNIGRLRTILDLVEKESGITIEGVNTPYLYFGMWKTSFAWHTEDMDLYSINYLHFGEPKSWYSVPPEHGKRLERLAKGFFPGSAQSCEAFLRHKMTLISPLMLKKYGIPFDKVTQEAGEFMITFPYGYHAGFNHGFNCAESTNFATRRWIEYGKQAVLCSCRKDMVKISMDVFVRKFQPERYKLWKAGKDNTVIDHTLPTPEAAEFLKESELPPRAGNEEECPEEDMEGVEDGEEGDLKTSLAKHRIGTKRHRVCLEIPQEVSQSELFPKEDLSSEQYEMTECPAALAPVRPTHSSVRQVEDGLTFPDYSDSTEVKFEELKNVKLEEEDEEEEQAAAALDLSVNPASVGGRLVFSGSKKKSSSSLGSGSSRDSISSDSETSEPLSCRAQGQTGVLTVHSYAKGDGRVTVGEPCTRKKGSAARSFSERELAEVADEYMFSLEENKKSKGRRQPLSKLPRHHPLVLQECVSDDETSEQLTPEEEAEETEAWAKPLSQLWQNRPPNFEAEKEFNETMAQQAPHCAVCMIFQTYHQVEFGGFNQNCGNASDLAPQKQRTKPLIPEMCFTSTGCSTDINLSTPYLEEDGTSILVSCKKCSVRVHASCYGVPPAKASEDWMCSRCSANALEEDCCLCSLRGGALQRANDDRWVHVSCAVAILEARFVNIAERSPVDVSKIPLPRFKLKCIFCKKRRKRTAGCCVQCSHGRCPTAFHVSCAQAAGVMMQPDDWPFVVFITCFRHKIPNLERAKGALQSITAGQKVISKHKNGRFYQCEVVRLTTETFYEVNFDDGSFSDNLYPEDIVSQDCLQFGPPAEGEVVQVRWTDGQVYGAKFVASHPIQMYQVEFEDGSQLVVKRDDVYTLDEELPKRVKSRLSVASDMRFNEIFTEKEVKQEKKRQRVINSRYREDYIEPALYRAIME
Further: nearly all actives have a fitted effect of over 50% in size.
On the % scale 0 is the no-effect control and ±100 the full control effect; potency means the concentration at half of the fitted maximal effect; tags describe the fitted curve by direction and shape.

Compound	Potency	activity change, negative = inhibition
Cc1cccc(N2C(=O)/C(=C/c3ccc(CN(CCC#N)S(C)(=O)=O)o3)C(=O)NC2=S)c1	active: 50.1 µM	–
COC(=O)COc1ccc(/C=C2\C(=O)NC(=S)N(c3ccc(C)cc3)C2=O)cc1OC	inconclusive: 22.4 µM [inhibitor, full curve]	–
CC1=C(C(=O)O)N2C(=O)C(NC(=O)c3nn(C)cc3[N+](=O)[O-])C2SC1 (stereo not given)	inconclusive: 56.2 µM [inhibitor, partial curve, poor fit]	–
COc1ccc(-c2nn(CCC#N)cc2C(=O)NCc2ccccc2)cc1	–	inactive: 1.47% [at 11.4 µM]
CC(=O)N1N=C(c2cccnc2)CC1c1ccccc1O (stereo not given)	–	inactive: -11.2%
CC(C)(O)[C@H]1O[C@H]2CC[C@@]3(C)[C@@](O)(CC[C@H]4Cc5c([nH]c6ccccc56)[C@@]43C)C2=CC1=O	inconclusive: 56.2 µM [inhibitor, partial curve]	–
Cc1cc2c(cc1C)NP(=S)(c1ccccc1)N2	inconclusive: 50.1 µM [inhibitor, partial curve]	–
Cc1cccc(NC(=O)c2ccc(F)c(S(=O)(=O)N3CCN(c4ccc(F)cc4)CC3)c2)c1	inconclusive: 79.4 µM [inhibitor, partial curve]	–
COc1ccccc1N=Nc1c(O)[nH]c(=S)[nH]c1=O	inconclusive: 89.1 µM [inhibitor, single point]	–
O=C(Nc1ccc2c(c1)OCCO2)c1cccn(Cc2cccc([N+](=O)[O-])c2)c1=O	inconclusive: 22.4 µM [inhibitor, full curve, poor fit]	–
CCCc1[nH]nc2c1C(c1ccc(OC)c(Cn3nnc4ccccc43)c1)C(C#N)=C(N)O2 (stereo not given)	inconclusive: 31.6 µM [inhibitor, single point]	–
CCCCCSc1cc(O)c(C(CNC)C(C)C)cc1OC (stereo not given)	inconclusive: 50.1 µM [inhibitor, partial curve]	–
CCC[N+]12CCC(CC1)C(C(O)(c1ccccc1)c1ccccc1)C2 (stereo not given)	–	inactive: -1.68%
COc1ccc(C2NCc3ccccc3-n3cccc32)cc1 (stereo not given)	inconclusive: 89.1 µM [inhibitor, single point]	–
Cn1cccc1/C=C1\C(=O)NC(=O)N(Cc2ccco2)C1=O	active: 56.2 µM	–
OC(COCc1ccc(Cl)cc1)CN1CC=C(c2ccccc2)CC1 (stereo not given)	inactive and active: 1.12 µM	–
CN(C)C(=O)CSc1nnc([C@@H](N)Cc2ccccc2)o1	inconclusive: 89.1 µM [inhibitor, partial curve]	–
CCOC(=O)c1c(C)[nH]c(C)c1S(=O)(=O)NCC(=O)N1CCN(c2cc(Cl)ccc2C)CC1	inconclusive: 22.4 µM [inhibitor, full curve]	–
CSc1ncc(/C=C2/C(=O)NC(=O)N(c3ccc(Cl)cc3)C2=O)cn1	inconclusive: 50.1 µM [inhibitor, partial curve]	–
CC(=O)N1CCN(Cc2ccc(Cl)nc2)CC1	–	inactive: 0.699%
S=c1[nH]nc(Cn2c(-c3ccccn3)nc3ccccc32)n1-c1ccc2c(c1)OCCO2	active: 3.16 µM	–
CCN(CC)C(=O)Oc1ccc(OC(=O)N(CC)CC)cc1	inconclusive: 12.6 µM [inhibitor, partial curve, poor fit]	–
COc1ccc(/C=C2/C(=O)N(c3ccccc3)N=C2C)cc1	active: 20 µM	–
O=C1NC(=O)N(Cc2ccccc2)C(=O)/C1=C/c1cnc(-c2ccccc2)nc1	active: 79.4 µM	–

Compound	Potency	activity change, negative = inhibition
Oc1ccc(/C=N/NP(=S)(c2ccccc2)c2ccccc2)cc1	inconclusive: 100 µM [inhibitor, single point]	–
N#CC(C#N)=Cc1ccc(O)c(O)c1	inconclusive: 3.98 µM [inhibitor, full curve, poor fit]	–
Cc1nc2cc(F)ccc2n1C1CCN(Cc2nnnn2CCc2ccccc2)CC1	–	inactive: -35.4% [at 57.1 µM]
CCOc1cc(C2NCc3ccccc3-n3cccc32)ccc1O (stereo not given)	inconclusive: 50.1 µM [inhibitor, partial curve]	–
Cc1cc(C)cc(N2C(=O)NC(=O)/C(=C/c3cccn3-c3ccc(Cl)cc3)C2=O)c1	–	inactive: -2.78%
CN(C)CCSC1c2ccccc2CSc2ccccc21 (stereo not given)	inconclusive: 63.1 µM [inhibitor, partial curve, poor fit]	–
O=C(Cc1ccccc1)c1ccccn1	active: 3.55 µM	–
O=C(Cc1c[nH]c2ccccc12)NNCc1ccc(N(CCCl)CCCl)cc1	inconclusive: 79.4 µM [inhibitor, partial curve]	–
COC1CCCCC1NCCc1ccccc1 (stereo not given)	–	inconclusive: -100% [inhibitor]
COc1cc(/C=C/c2nc3ccccc3c(=O)n2-c2ccc(O)cc2)ccc1O	inconclusive: 79.4 µM [inhibitor, partial curve]	–
Cc1cccc(CN2CCc3nc(N4CCN(c5ccccn5)CC4)ncc3C2)c1	active: 79.4 µM	–
CN(C)[C@@H]1C(=O)C(C(N)=O)=C(O)[C@@]2(O)C(=O)C3=C(O)c4c(O)cccc4[C@@](C)(O)C3C[C@@H]12 (stereo not given in full)	active: 10 µM	–
CN(C)c1ccc(NC(=O)CN2C(=O)CN=C(c3ccccc3)c3ccccc32)cc1	active: 56.2 µM	–
COc1ccc(N2C(=O)/C(=C/C=C/c3ccccc3[N+](=O)[O-])C(=O)NC2=S)cc1	active: 12.6 µM	–
CCOc1cc(CNCCc2cccc(F)c2)ccc1OC	active: 1.41 µM	–
O=C(N/N=C/c1c(O)n(Cc2ccccc2)c(=O)[nH]c1=O)c1ccccc1	inconclusive: 79.4 µM [inhibitor, partial curve]	–
O=C(Nc1ccc(Br)cc1C(=O)O)c1ccc2c(c1)C(=O)N(Cc1ccccc1)C2=O	active: 50.1 µM	–
COC(=O)[C@@]1(C)[C@H]2C(=O)N(Cc3ccccc3)C(=O)[C@H]2[C@H]2CN=C(SCc3ccc(Cl)cc3)N21	inconclusive: 56.2 µM [inhibitor, partial curve]	–
CCOC(=O)C(NS(=O)(=O)c1ccc(C)cc1)(C(F)(F)F)P(=O)(OCC(C)C)OCC(C)C (stereo not given)	inconclusive: 89.1 µM [inhibitor, partial curve]	–
CCOC(=O)c1ccc(N2C(=O)c3n[nH]c(-c4cccs4)c3C2c2ccc(C(C)(C)C)cc2)cc1 (stereo not given)	inconclusive: 10 µM [inhibitor, full curve]	–
CCOC(=O)c1cc(C)n(CCc2cnc[nH]2)c1C	inconclusive: 79.4 µM [inhibitor, partial curve]	–
Cc1ccsc1/C=C1\C(=O)NC(=S)N(C)C1=O	active: 89.1 µM	–
CCOP(=S)(OCC)Oc1cc(C)oc(=O)c1	–	inactive: -24%
O=C1NC(=S)NC(=O)C1c1ccccc1	active: 50.1 µM	–

Compound	Potency	activity change, negative = inhibition
CCCCCCn1c(=O)c(C(=O)Nc2ncccc2O)c(O)c2ccccc21	inconclusive: 44.7 µM [inhibitor, partial curve]	–
COc1ccc(OC)c(CN2CCN(C(=O)COc3cccc(C)c3)CC2)c1	active: 3.55 µM	–
N[C@@H](Cc1cc(I)c(O)c(I)c1)C(=O)O	active: 5.62 µM and active: 11.2 µM	–
Cn1cccc1/C=C1\C(=O)NC(=O)N(Cc2ccccc2)C1=O	inconclusive: 100 µM [inhibitor, partial curve, poor fit]	–
O=[N+]([O-])c1ccc(N2CCCCCC2)c2ncccc12	active: 15.8 µM	–
Oc1cc2c(cc1CN1CCN(c3ccc(F)cc3)CC1)OCO2	inconclusive: 7.08 µM [inhibitor, single point]	–
COc1ccc(NP(=O)(Oc2ccc(Cl)cc2)Oc2ccc(Cl)cc2)cc1OC	inconclusive: 20 µM [inhibitor, full curve, poor fit]	–
CC1=C(C(=O)O)N2C(=O)C(NC(=O)Cc3ccccc3)C2SC1 (stereo not given)	–	inactive: 8.1%
CCCCCSc1cc(OC)c(CCN)cc1OC	inconclusive: 39.8 µM [inhibitor, full curve, poor fit]	–
N#CC(C#N)=NNc1ccc(S(=O)(=O)N2CCCC2)cc1	inconclusive: 44.7 µM [inhibitor, single point]	–
CCOP(=O)(/C=C(\Cl)c1ccccc1)C(O)c1ccc(F)cc1 (stereo not given)	inconclusive: 10 µM [inhibitor, partial curve, poor fit]	–
Cc1oc(-c2cccc(Cl)c2)nc1CN1CCC(C(=O)NCCCN2CCN(c3cccc(Cl)c3)CC2)CC1	active: 31.6 µM	–
O=C(NCC(c1cccnc1)N1CCN(c2ccccc2)CC1)Oc1ccccc1 (stereo not given)	inconclusive: 79.4 µM [inhibitor, partial curve]	–
COc1cc2[nH]c(=O)n(-c3ccccc3)c(=O)c2cc1OC	–	inactive: -21.2%
CC(=O)OC1C(=O)OCC23CCC4(C)OC4C2OC2CC(OC(=O)C=CC=CC(=O)OCCC1C)C3(C)C21CO1 (stereo not given)	–	inactive: -4.86%
CC1=NCCc2c1[nH]c1ccccc21	inconclusive: 50.1 µM [inhibitor, partial curve]	–
Cc1ccccc1CN1CCN(c2ccc(Cl)cc2)CC1	active: 3.98 µM	–
CCOc1ccc(Nc2c(S(=O)(=O)c3ccc(C)cc3)cnc3ccccc23)cc1	inconclusive: 15.8 µM [inhibitor, partial curve]	–
CCOC(=O)C1CCN(/C=C2/C(=O)NC(=S)N(c3ccccc3F)C2=O)CC1	–	inactive: 0.69%
COc1cc2c(cc1OC)-c1c3c(cc4c1[C@@H](C2)N(C)CC4)OCO3	inconclusive: 50.1 µM [inhibitor, partial curve]	–
COc1ccc(CN2C(=O)NC(=O)/C(=C\c3cc(OC)c(OC)c(OC)c3)C2=O)cc1	active: 50.1 µM	–
O=c1cc(-c2ccc(O)c(O)c2)oc2c(C3O[C@H](CO)[C@@H](O)[C@H](O)[C@H]3O)c(O)cc(O)c12 (stereo not given in full)	inconclusive: 15.8 µM [inhibitor, full curve]	–
